According to PMC6919601, “Identification of Plasmodium dipeptidyl aminopeptidase allosteric inhibitors by high throughput screening” (PLoS ONE, 2019):
About 230 (0.21%) of roughly 110,000 compounds showed an effect of 50% or more. Some of the results follow.

Target: DPAP1 (Plasmodium falciparum, UniProt Q8IIJ9)
Experiment: primary screen, percent inhibition; read by cleavage of a fluorogenic dipeptide substrate; higher = more effect of the substance
Design: species or system P. falciparum D10 trophozoite lysates; single well
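Note: 30 min substrate incubation versus DMSO and 10 µM JCP410 controls.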

DPAP1, sequence (Q8IIJ9 whole entry, looked up): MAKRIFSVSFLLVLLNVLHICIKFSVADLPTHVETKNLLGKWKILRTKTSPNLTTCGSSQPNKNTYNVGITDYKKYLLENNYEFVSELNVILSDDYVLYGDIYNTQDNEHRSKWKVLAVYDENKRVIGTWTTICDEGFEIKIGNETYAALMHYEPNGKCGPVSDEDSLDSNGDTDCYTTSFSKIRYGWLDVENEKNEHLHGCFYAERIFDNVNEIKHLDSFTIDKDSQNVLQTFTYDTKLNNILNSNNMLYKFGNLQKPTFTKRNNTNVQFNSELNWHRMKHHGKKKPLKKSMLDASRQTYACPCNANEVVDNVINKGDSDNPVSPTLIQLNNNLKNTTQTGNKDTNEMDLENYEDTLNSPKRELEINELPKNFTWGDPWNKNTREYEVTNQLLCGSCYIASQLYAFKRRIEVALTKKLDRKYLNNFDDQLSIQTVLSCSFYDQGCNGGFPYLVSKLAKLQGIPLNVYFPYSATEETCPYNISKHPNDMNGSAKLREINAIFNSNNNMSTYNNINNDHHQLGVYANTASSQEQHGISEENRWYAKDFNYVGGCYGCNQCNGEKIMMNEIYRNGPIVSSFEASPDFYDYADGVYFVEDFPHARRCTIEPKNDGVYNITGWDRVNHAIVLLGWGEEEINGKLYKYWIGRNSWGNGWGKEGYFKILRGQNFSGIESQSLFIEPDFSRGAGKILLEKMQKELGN

Row | Compound | % Inhibition @ 10 uM
1 | C=CCOc1ccc(C(=O)Nc2ccccn2)cc1 | -0.357%
2 | Cc1sc2ncn(CC(=O)NC3CCCC(C)C3C)c(=O)c2c1S(=O)(=O)N1CCC(C)CC1 (stereo not shown) | -4.67%
3 | Cc1ccc(S(=O)(=O)N(CC(=O)NCc2ccccn2)c2cc(Cl)ccc2C)cc1 | -11.1%
4 | CCOC(=O)c1c(O)oc2ccccc2c1=O | 3.22%
5 | O=c1c2cccnc2n(Cc2ccc(Cl)cc2)c(=O)n1C1CCCCC1 | 3.32%
6 | Cc1nnc(N2CCCC(C(=O)NC(C)C)C2)c2nn(-c3ccccc3)c(C)c12 (stereo not shown) | 1.74%
7 | CS(=O)(=O)c1nc(S(=O)(=O)c2ccc(Cl)cc2)c(NCc2ccc3c(c2)OCO3)s1 | -0.522%
8 | CCN1C(=O)N/C(=C/c2ccc(-c3cc(C(=O)O)ccc3Cl)o2)C1=O | -5%
9 | Cc1ccc(CNC(=O)CSc2cn(CC(=O)N3CCC(C)CC3)c3ccccc23)cc1 | -3.73%
10 | N#Cc1cc2c(nc1SCN1C(=O)c3ccccc3C1=O)CCC2 | -5.48%
11 | COc1ccc(CCC(=O)Nc2sc3c(c2C(N)=O)CCC(C)C3)cc1 (stereo not shown) | -4.21%
12 | CC1CC2=Nc3nc4ccccc4n3C(c3cccs3)C2=C(O)C1 (stereo not shown) | -7.35%
13 | O=C1C2C3CCC(C3)C2C(=O)N1C1CCCCC1 (stereo not shown) | -6.62%
14 | CC12CN3CC(C)(CN(C1)C3C(O)C(O)C(O)C(O)CO)C2=O (stereo not shown) | 0.962%
15 | Cc1ccccc1NC(=O)c1cc(Cl)c(Cl)cc1C(=O)O | 1.52%
16 | O=c1cc(OCc2ccccc2)c2ccccc2o1 | 4.12%
17 | Cc1c2cnn(CC(=O)NC3CCN(Cc4ccccc4)CC3)c(=O)c2c(C)n1Cc1ccccc1 | -0.447%
18 | COc1ccc(C(CC(=O)Nc2nnc(C)s2)c2ccccc2)cc1 (stereo not shown) | -4.91%
19 | OCC(O)CSc1nc2ccccc2[nH]1 (stereo not shown) | -1.59%
20 | CN1CCN(C(=O)c2cc(-c3ccc4c(c3)OCO4)on2)CC1 | 0.0221%
21 | Brc1ccc(-c2cn3nc(C4CCCCC4)sc3n2)cc1 | -2.71%
22 | NS(=O)(=O)c1cccc(S(=O)(=O)c2cccc(S(N)(=O)=O)c2)c1 | 2.41%
23 | COc1cc(C(=O)/N=C2\C[N+](C(C)Cc3ccccc3)=NO2)cc(OC)c1OC (stereo not shown) | -2.87%
24 | Cc1c(CN(C)Cc2ccccc2)c(=O)n(-c2ccccc2)n1C | -0.603%
25 | CC(=O)N1CCc2nc(SCC(=O)NCc3ccc(Cl)cc3)c(C#N)c(C(F)(F)F)c2C1 | 5.54%

Row | Compound | % Inhibition @ 10 uM
26 | CCC(C)NC(=O)CS(=O)(=O)Cc1nc(-c2ccc(OC)cc2)oc1C (stereo not shown) | -9.55%
27 | CN(C)c1ccc(/C=C2\CCC/C(=C\c3cccs3)C2=O)cc1 | 3.96%
28 | O=C(CN(Cc1ccccc1)S(=O)(=O)c1cc(Cl)ccc1Cl)NC1CCCC1 | -3.5%
29 | CC(C)CCNC(=O)c1ccc2c(c1)ncn2C1CCCC1 | -6.88%
30 | CCCc1[nH]nc2c1C(c1ccccc1OC)C(C#N)=C(N)O2 (stereo not shown) | -5.34%
31 | CC1=C(C#N)C(c2ccc(Cl)c(Cl)c2)C2=C(O)CCCC2=N1 (stereo not shown) | 1.25%
32 | Cc1cccc(C(=O)Nc2ccc(S(=O)(=O)N3CCOCC3)cc2C)c1 | 3.48%
33 | Cc1cncn1CCc1nc2c3ccccc3nc(S)n2n1 | 0.4%
34 | CC(=O)Nc1ccc(CN2CCC(Cc3ccccc3)CC2)cc1 | -1.18%
35 | O=C(Nc1cccc(Br)c1)c1cc2ccccc2oc1=O | -7.42%
36 | Cc1c(-c2ccco2)[n+]([O-])c2c([n+]1[O-])CCCC2 | -3.41%
37 | CCC(=O)c1c(N2CCOCC2)nc(C)c2c1CCC2 | 0.163%
38 | NS(=O)(=O)c1ccc(CCNc2nc3ccccc3c3nc(-c4ccncc4)nn23)cc1 | 0.981%
39 | CC1CCN(c2c(NCC3CCC(C(=O)NCc4ccc(F)cc4)CC3)c(=O)c2=O)CC1 (stereo not shown) | 2.84%
40 | Clc1ccc(CN2CCN(c3ccccc3)CC2)cc1Cl | -0.0404%
41 | Cc1nc2cc(-c3cccc(F)c3)nn2c(C)c1CCC(=O)O | 2.39%
42 | Cn1cc(CNC(=O)c2sc3cccc(Cl)c3c2Cl)cn1 | 2.08%
43 | Cc1ccc(NC2OC(C)C(O)C(O)C2O)cc1C (stereo not shown) | -5.62%
44 | O=C(O)c1cccc(S(=O)(=O)N2CCN(Cc3ccc4c(c3)OCO4)CC2)c1 | 9.21%
45 | CCOc1ccc(-c2nc3c(=O)n(C)c(=O)n(C)c3[nH]2)cc1OC | 17.6%
46 | COc1ccc2[nH]c3c(=O)n(CCC(=O)NC4CCN(Cc5ccccc5)CC4)c(=S)[nH]c3c2c1 | -3.95%
47 | CC(C)(C)C(=O)CSc1nc(-c2ccccc2)cs1 | 0.776%
48 | Cc1cccn2c(=O)c3cc(C(=O)N4CCN(C(c5ccccc5)c5ccccc5)CC4)n(C)c3nc12 | -1.26%
49 | Cc1nn(-c2ccc(Br)cc2)c(O)c1/C=N/c1ccccc1C(=O)O | -1.44%
50 | CC(C)C[C@H](NC(=O)c1cc(-c2ccccc2)cs1)C(=O)NCC#N | 0.174%

Row | Compound | % Inhibition @ 10 uM
51 | CCc1nc2nc(C)cc(NC3CCN(Cc4ccccc4)CC3)n2n1 | -0.0709%
52 | CSc1nc(Oc2ccc(Cl)cc2C)cc(-n2ncc(C#N)c2N)n1 | -4.12%
53 | O=C(CNC(=S)N(Cc1ccccc1)Cc1ccccc1F)N1CCCC1 | 4.47%
54 | CCN1C(=O)N/C(=C/c2cccn2-c2ccc(C(=O)O)cc2)C1=O | -3.23%
55 | COc1ccc(-c2[nH]nc3c2C(c2ccco2)C(C#N)=C(N)O3)cc1 (stereo not shown) | -3.16%
56 | O=C(Nc1ccc2nc(-c3ccccc3)sc2c1)c1cccs1 | 9.34%
57 | Cc1c2cnn(CC(=O)O)c(=O)c2c(C)n1Cc1ccccc1 | -1.75%
58 | Cc1cc(C)c2oc(-c3cccc(NC(=O)c4ccccc4Cl)c3)nc2c1 | -4.4%
59 | CC(C)C[C@@H](CN1CC[C@@H](NC(=O)[C@@H](CC(C)C)NC(=O)OCc2ccccc2)C1)NC(=O)OCc1ccccc1 | 2.22%
60 | COc1cc(C(=O)n2nc(-c3cccnc3)nc2NCc2ccccc2)cc(OC)c1OC | 2.01%
61 | Cc1ccc(S(=O)(=O)c2nc(S(C)(=O)=O)sc2N2CCc3ccccc3C2)cc1 | 1.15%
62 | CCOCCCNc1nc2c(=O)n(C)c(=O)n(C)c2[nH]1 | 2.24%
63 | CC(=O)N1CCN(c2ccc(NC(=O)COc3cc(Cl)c(Cl)cc3Cl)cc2)CC1 | -4.56%
64 | CC(C)(C)C1CCC(OC(=O)CCC(=O)Nc2nccs2)CC1 (stereo not shown) | -0.128%
65 | Cc1ccc(Cn2c(Sc3nccc(C)n3)nc3c2c(=O)[nH]c(=O)n3C)cc1 | 2.41%
66 | COc1ccc(C)cc1NC(=O)C12CCC(C)(C(=O)C1=O)C2(C)C (stereo not shown) | -4.06%
67 | CCOC(=O)c1cc(C(=O)OCC)c(C)nc1C | -1.03%
68 | COc1cc(C2C(C#N)=C(N)Oc3[nH]nc(-c4ccc(F)cc4)c32)ccc1OCCN1CCOCC1 (stereo not shown) | 2.46%
69 | CCOC(=O)c1cc2c(=O)n3ccccc3nc2n(CCOC)/c1=N\C(=O)C(C)Oc1ccccc1 (stereo not shown) | -11.5%
70 | COc1ccc(C(=O)NC2CCCCCC2)c(OC)c1 | -3.75%
71 | COc1ccc(C2C3=C(OC4=C2CC(C)(C)CC4=O)C(=O)CC(C)(C)C3)cc1 | -2.56%
72 | Cc1nn(CC(=O)NCc2ccc(-n3cccc3)cc2)c(C)c1Br | -0.92%
73 | COCCNC(=O)c1ccc(NS(=O)(=O)c2cccc(OC)c2)cc1 | -1.61%
74 | CCOC(=O)c1c(C)nc2ccccc2c1C(=O)O | 6.39%
75 | O=C(c1cccs1)N1CCN(Cc2ccccc2F)CC1 | 1.34%

Row | Compound | % Inhibition @ 10 uM
76 | CN(C)c1cc[n+](Cc2ccccn2)cc1 | 2.48%
77 | CCC(C)NC(=O)Cn1ncc2c3ccccc3n(Cc3cc(C)ccc3C)c2c1=O (stereo not shown) | -1.58%
78 | NC(=O)COc1ccccc1/C=C1/SC(=O)N(Cc2ccccc2F)C1=O | -14.2%
79 | Cc1ccc2c(c1)C1CN(C)CCC1N2C(=O)C(F)(F)F (stereo not shown) | 5.77%
80 | O=C1CC(c2ccccc2)CN1C(=O)C12CC3CC(CC(C3)C1)C2 (stereo not shown) | 5.04%
81 | Cc1ccc(S(=O)(=O)NCc2nc(-c3ccccc3)no2)cc1 | -4.82%
82 | Cc1c(-c2nsc(NC(=O)c3ccco3)n2)nnn1-c1cccc(Cl)c1 | 7.83%
83 | Cc1cccc(C(=O)Nc2c(C(=O)NC(C)(C)C)oc3ccccc23)c1 | -0.528%
84 | Cc1cccc(NS(=O)(=O)c2ccc(Br)s2)n1 | -3.78%
85 | COc1cccc(/C=c2\sc3nc(-c4ccccc4OC)nn3c2=O)c1 | 2.24%
86 | O=C(NC(Cc1ccc(-c2ccccc2)cc1)C(=O)NC(CCc1ccccc1)C(=O)CO)OCc1ccccc1 (stereo not shown) | -3.34%
87 | CCOC(=O)c1cc(-c2ccc(OC)c(S(=O)(=O)N(C)Cc3ccccc3)c2)on1 | -3.39%
88 | O=C(O)C(Cc1ccccc1)NS(=O)(=O)c1cccc2nsnc12 (stereo not shown) | -5.76%
89 | COc1cccc(OC)c1C(=O)Nc1sc2c(c1C(N)=O)CCC(C(C)(C)C)C2 (stereo not shown) | 8.36%
90 | COc1ccc(C(=O)/C=C2\C(=O)N(c3ccccc3)C(=N)N2c2ccccc2)cc1 | 2.82%
91 | O=C(Nc1nc(-c2ccc(Br)cc2)cs1)C1CCCO1 (stereo not shown) | 12.6%
92 | CCOC(=O)/C(=C/c1c[nH]c2ccccc12)NC(C)=O | -1.76%
93 | COc1cc(CNC2CCCCC2)cc(OC)c1 | -2.37%
94 | Cc1nnc(NS(=O)(=O)c2ccc(Cl)cc2)s1 | 3.96%
95 | Nc1c(-c2nc(-c3ccccc3)no2)nnn1-c1ccccc1 | -1.01%
96 | COc1ccccc1S(=O)(=O)Cc1ccc(C(=O)NCCN(C)C)o1 | -4.53%
97 | COc1ccccc1CNc1ccc(O)cc1 | 1.62%
